From article PMC4336329 (PLoS ONE, 2015)
Hit rate of the full screen: of about 310,000 compounds, about 2,200 (0.71%) showed an effect of 50% or more. Effects have a minus sign here. The list shows a part of the results.

Biological target: human ether-à-go-go-related gene (hERG) potassium channel (human, UniProt Q12809)
Assay: primary screen, population patch clamp on CHO cells stably expressing hERG

Chain of human ether-à-go-go-related gene (hERG) potassium channel (Q12809 whole entry, looked up): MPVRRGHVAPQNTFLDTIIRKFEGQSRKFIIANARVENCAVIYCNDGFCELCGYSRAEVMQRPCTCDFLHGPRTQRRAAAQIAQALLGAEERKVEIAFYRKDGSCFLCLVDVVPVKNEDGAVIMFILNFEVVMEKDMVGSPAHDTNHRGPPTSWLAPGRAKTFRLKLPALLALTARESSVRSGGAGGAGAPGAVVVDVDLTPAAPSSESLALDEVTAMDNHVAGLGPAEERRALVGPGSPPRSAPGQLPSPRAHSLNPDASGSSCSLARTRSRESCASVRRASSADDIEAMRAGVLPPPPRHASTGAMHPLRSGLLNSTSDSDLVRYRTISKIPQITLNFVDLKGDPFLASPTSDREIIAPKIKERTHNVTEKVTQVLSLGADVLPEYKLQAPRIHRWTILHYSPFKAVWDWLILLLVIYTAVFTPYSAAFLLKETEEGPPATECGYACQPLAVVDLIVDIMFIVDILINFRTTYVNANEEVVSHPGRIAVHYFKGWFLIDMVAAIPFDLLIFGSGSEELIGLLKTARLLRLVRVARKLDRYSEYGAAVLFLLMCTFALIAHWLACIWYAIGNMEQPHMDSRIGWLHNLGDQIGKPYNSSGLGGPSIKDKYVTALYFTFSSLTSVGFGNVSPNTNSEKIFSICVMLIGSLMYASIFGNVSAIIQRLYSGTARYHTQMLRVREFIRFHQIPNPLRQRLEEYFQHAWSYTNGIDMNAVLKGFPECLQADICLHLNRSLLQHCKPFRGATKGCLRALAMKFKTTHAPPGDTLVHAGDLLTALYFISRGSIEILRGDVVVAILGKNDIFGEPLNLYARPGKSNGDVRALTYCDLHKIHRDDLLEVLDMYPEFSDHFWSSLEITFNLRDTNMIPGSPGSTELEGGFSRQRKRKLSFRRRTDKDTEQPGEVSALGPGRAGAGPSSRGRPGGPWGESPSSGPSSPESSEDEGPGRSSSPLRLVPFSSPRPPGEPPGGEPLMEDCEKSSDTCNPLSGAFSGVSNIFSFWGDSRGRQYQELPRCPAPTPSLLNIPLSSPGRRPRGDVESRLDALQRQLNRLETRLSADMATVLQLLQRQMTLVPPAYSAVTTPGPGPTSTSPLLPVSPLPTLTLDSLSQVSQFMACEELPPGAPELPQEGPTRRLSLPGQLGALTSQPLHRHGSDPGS

Compared with `CN(CC(=O)Nc1ccc(Cl)c(C(F)(F)F)c1)C(=O)/C=C/c1cccs1`, `Cc1ccc2c(c1)N(CC(=O)NCc1cccs1)C(=O)C(C)O2` (centres unmarked) is higher in “hERG current change (%, negative = inhibition) at 1uM” value: 14.7% for the first, 16.4% for the second.

First: CCOC(=O)c1c(C)n(C)c2ccc(O)c(CN(C)C)c12.O=C(O)C(=O)O
Second: CCOc1ccc(S(=O)(=O)n2c([N+](=O)[O-])cnc2C)c(C)c1C.O=C(O)C(=O)O
The “hERG current change (%, negative = inhibition) at 1uM” value of the first is lower: 0.986% for the first, 11.8% for the second.

Going from `CC(=O)c1nn(-c2ccc(Cl)cc2)c(=O)[nH]c1=O` to `COc1ccc(-c2nc3c(c(=O)[nH]c(=O)n3Cc3ccccc3)n2Cc2ccccc2)cc1`, the “hERG current change (%, negative = inhibition) at 1uM” value rises from -8.86% to -5.94%.

First: COc1ccc2c(-c3ccccc3)cc(SCC(=O)N(C)C)nc2c1
Second: Cc1ccc(S(=O)(=O)NC(CC(=O)n2nc(C)cc2C)c2ccccc2)cc1 (centres unmarked)
The “hERG current change (%, negative = inhibition) at 1uM” value of the first is lower: 4.7% for the first, 11.2% for the second.

First: CC1CCCCC1NC(=O)/C=C/c1nc2ccccc2s1 (centres unmarked)
Second: O=C(CO/N=C/c1ccccc1OC(F)F)NC1CCCCC1
The “hERG current change (%, negative = inhibition) at 1uM” value of the first is higher: 1.69% for the first, 1.39% for the second.

`CC(=O)c1ccc(NC(=O)CCn2c(=S)oc3ccccc32)cc1` and `Cc1ccc(-c2noc(CCC(=O)NCCCN3CCN(c4cccc(Cl)c4)CC3)n2)cc1` are the same in “hERG current change (%, negative = inhibition) at 1uM” value: 11.8% for the first, 11.8% for the second.

Going from `O=c1c2ccccc2nc2n1-c1ccccc1CCC2` to `O=C(NCc1ccccc1)C1=C[C@H](c2ccc3c(c2)OCO3)C[C@H](OCCCCO)O1`, the “hERG current change (%, negative = inhibition) at 1uM” value falls from 11.8% to 2.86%.

Going from `CCCCNC(=O)Cn1cnc2sc(C)c(S(=O)(=O)N3CCN(c4ncccn4)CC3)c2c1=O` to `O=C(CCNS(=O)(=O)c1ccccc1C(F)(F)F)N1CCN(S(=O)(=O)c2cccc(Cl)c2)CC1`, the “hERG current change (%, negative = inhibition) at 1uM” value rises from 11.8% to 16%.

First: CCc1ccc(-c2cc(C)no2)cc1S(=O)(=O)Nc1cc(C)ccn1
Second: CS(=O)(=O)N(CC(=O)Nc1ccccc1C(=O)N1CCCC1)c1ccc2c(c1)OCO2
The “hERG current change (%, negative = inhibition) at 1uM” value of the first is higher: 14.4% for the first, 4.42% for the second.

Going from `CCC(C)NCCOCCOc1ccc(F)cc1.O=C(O)C(=O)O` (centres unmarked) to `CCCOC(=O)COc1cc(C)cc2oc(=O)c3c(c12)CCC3`, the “hERG current change (%, negative = inhibition) at 1uM” value rises from 8.31% to 13.8%.

Compared with `CC(=O)N1c2ccc(S(=O)(=O)N3CCC(C(=O)Nc4cccc(Cl)c4)CC3)cc2CC1C` (centres unmarked), `COC(=O)[C@]1(C)CCC[C@@]2(C)C3CC[C@]4(OC(C)=O)C[C@@]3(CCC21)CC4=NO` (some centres unmarked) is lower in “hERG current change (%, negative = inhibition) at 1uM” value: 18.4% for the first, 0.0891% for the second.

`NC(=S)NNc1cccc2cccnc12` was tested, and the “hERG current change (%, negative = inhibition) at 1uM” value was 24.6%.
